# Experimental data taken from the supplement of paper PMC8728848.
# This is one part of the list.
# How the values were obtained:
# Assay in all cases: glycan array binding signal (z-score within array); higher = stronger binding
# Conditions in all cases: glycan notation: IUPAC condensed, linker removed; mutation: Y228W
# [1] = target: GlcNAc(b1-3)Gal(b1-4)GlcNAc(b1-3)Gal(b1-4)GlcNAc(b1-3)Gal(b1-4)GlcNAc(b1-3)Gal(b1-4)GlcNAc(b1-2)[GlcNAc(b1-3)Gal(b1-4)GlcNAc(b1-3)Gal(b1-4)GlcNAc(b1-3)Gal(b1-4)GlcNAc(b1-3)Gal(b1-4)GlcNAc(b1-6)]Man(a1-6)[GlcNAc(b1-3)Gal(b1-4)GlcNAc(b1-3)Gal(b1-4)GlcNAc(b1-3)Gal(b1-4)GlcNAc(b1-3)Gal(b1-4)GlcNAc(b1-2)Man(a1-3)]Man(b1-4)GlcNAc(b1-4)[Fuc(a1-6)]GlcNAc
# In short: (§1)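 From the Consortium for Functional Glycomics database, 3228 arrays were curated, keeping only those whose protein sequence was available. Binding is given as a within-array Z-score averaged across arrays sharing a protein sequence and across linkers. Negative Z-scores can be read as non-binding.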
# [2] = target: GlcNAc(b1-3)Gal(b1-4)GlcNAc(b1-3)Gal(b1-4)GlcNAc(b1-3)GalNAc
# In short: as §1
# [3] = target: GlcNAc(b1-3)Gal(b1-4)GlcNAc(b1-3)GalNAc
# In short: as §1
# [4] = target: GlcNAc(b1-3)Gal(b1-4)GlcNAc(b1-3)[GlcNAc(b1-3)Gal(b1-4)GlcNAc(b1-3)]GalNAc
# In short: as §1
# [5] = target: GlcNAc(b1-3)Gal(b1-4)GlcNAc(b1-6)[Gal(b1-3)]GalNAc
# In short: as §1
# [6] = target: GlcNAc(b1-3)Gal(b1-4)GlcNAc(b1-6)[GlcNAc(b1-3)Gal(b1-3)]GalNAc
# In short: as §1
# [7] = target: GlcNAc(b1-3)Gal(b1-4)GlcNAc(b1-6)[GlcNAc(b1-3)]Gal(b1-4)GlcNAc
# In short: as §1
# [8] = target: GlcNAc(b1-3)GalNAc
# In short: as §1
# [9] = target: GlcNAc(b1-3)Man
# In short: as §1
# [10] = target: GlcNAc(b1-3)[GlcNAc(b1-4)][GlcNAc(b1-6)]GlcNAc
# In short: as §1
# [11] = target: GlcNAc(b1-3)[GlcNAc(b1-6)]Gal(b1-4)GlcNAc
# In short: as §1
# [12] = target: GlcNAc(b1-3)[GlcNAc(b1-6)]GalNAc
# In short: as §1
# [13] = target: GlcNAc(b1-4)Gal(b1-4)GlcNAc
# In short: as §1
# [14] = target: GlcNAc(b1-4)GlcNAc
# In short: as §1
# [15] = target: GlcNAc(b1-4)GlcNAc(b1-4)GlcNAc
# In short: as §1
# [16] = target: GlcNAc(b1-4)GlcNAc(b1-4)GlcNAc(b1-4)GlcNAc(b1-4)GlcNAc
# In short: as §1
# [17] = target: GlcNAc(b1-4)GlcNAc(b1-4)GlcNAc(b1-4)GlcNAc(b1-4)GlcNAc(b1-4)GlcNAc
# In short: as §1
# [18] = target: GlcNAc(b1-4)[GlcNAc(b1-6)]GalNAc
# In short: as §1
# [19] = target: GlcNAc(b1-6)Gal(b1-4)GlcNAc
# In short: as §1
# [20] = target: GlcNAc(b1-6)GalNAc
# In short: as §1
# [21] = target: GlcNAc6S(b1-3)Gal(b1-4)GlcNAc
# In short: as §1
# [22] = target: Kdn(a2-3)Gal(b1-3)GalNAc
# In short: as §1
# [23] = target: Kdn(a2-3)Gal(b1-3)GlcNAc
# In short: as §1
# [24] = target: Kdn(a2-3)Gal(b1-4)Glc
# In short: as §1
# [25] = target: Kdn(a2-3)Gal(b1-4)GlcNAc
# In short: as §1
# [26] = target: Kdn(a2-3)Gal(b1-4)[Fuc(a1-3)]GlcNAc
# In short: as §1
# [27] = target: Kdn(a2-6)Gal(b1-4)GlcNAc
# In short: as §1
# [28] = target: Man(a1-2)Man(a1-2)Man(a1-3)Man
# In short: as §1
# [29] = target: Man(a1-2)Man(a1-2)Man(a1-6)[Man(a1-3)]Man
# In short: as §1
# [30] = target: Man(a1-2)Man(a1-3)Man
# In short: as §1
binder,measurement,setting,value
"Epa1-NP-mutant-Y228W (Candida glabrata), Q6VBJ0 (protein) MILNPALFLNKCVCIYTTLILLLLTNGGYATSSNDISLASKDPTTFPLGCSPDITTPKKGLSMELYSYDFRKKGSYPCWDAAYLDPNYPRTGYKSHRLLAKVDGVTGNINFYYHATKGCTPQLGHLPASYNYPKPLTMTNFTMLLYGYFRPKVTGFHTFTISADDLLFVNFGAGNAFDCCRRDSSADHFGNYQAYAIWGSKTAKDELTVHLDAGVYYPIRLFYNNREWDGALSFTFKTESNENTVSDFSEYFFSLDDTEEGCPGLISYDSSCASVKTSKIIGIDYHTETPNENLVPITKTIYHLGIPCTGTTTTPLCGSGFYDPLANKCVTINTSSTSSVTKTTSHTTSKEVSFHSSISSQKTLIPKSIPSPYGPIKSQSIPTEMETSSEISSSEYAFSDVISTPSHSPYTKKHSSLNSSSYTSTVIHSLTSYSISQGIFSTSLSEQNITSKSSTDKFSTATSMSNNITQSSIIISQFSTNNENYTTTSMHTSSDKISTETLNNSISTTTSILFSNSSTILKNNTTIISSDKDTHYHPVNPTIVCSTNKTEIICASITQPSISNSNNHWSSSVLKFNSTTVRSTLPSSAGSNETSINVPFSSSTESNTSTSSTSTSNSKMVRSTLPSSAGSNETSISVPFSSSTESNTSTSSTSTSNSKMVRSTLPSSAGSNETSINVPFSSSTESNTSTSSTSTSNSKTVRSTPFSSAGIIMTSLSQRNNKSASSYASSNSKCYNTADSCRKVHSTPSYLLTSSYTSEGVDYDCSLVSTKLKINDTNCVNNKHTTKSCLKTSVTTTIPTLEIKTARKSSSNTIGLHSYPTSSPNKSISSAPIIGYISSFKTIKTASPSYQTSDLTTITTITSLNNPGSTAVENTHESNDKSRKTSSNDISSKHSVIKETKDAVESSNKSHQTNTLKCSSIIIASSSHNSYESLGGTTLTLTLSKVYSPQNNDTLPFLEISEVNPSRTVLPESSKMMQYLTSTEERNKTARNTIATNIVSISTFHFEGEGNAIRMGYTQLLLMLIGIIVMNIGT",glycan array binding signal (z-score),[1],0.383
same,glycan array binding signal (z-score),[2],-0.068
same,glycan array binding signal (z-score),[3],-0.124
same,glycan array binding signal (z-score),[4],-0.271
same,glycan array binding signal (z-score),[5],-0.16
same,glycan array binding signal (z-score),[6],0.098
same,glycan array binding signal (z-score),[7],-0.521
same,glycan array binding signal (z-score),[8],-0.098
same,glycan array binding signal (z-score),[9],-0.193
same,glycan array binding signal (z-score),[10],-0.403
same,glycan array binding signal (z-score),[11],-0.07
same,glycan array binding signal (z-score),[12],-0.341
same,glycan array binding signal (z-score),[13],-0.126
same,glycan array binding signal (z-score),[14],-0.198
same,glycan array binding signal (z-score),[15],-0.204
same,glycan array binding signal (z-score),[16],-0.175
same,glycan array binding signal (z-score),[17],-0.038
same,glycan array binding signal (z-score),[18],-0.409
same,glycan array binding signal (z-score),[19],0.336
same,glycan array binding signal (z-score),[20],-0.054
same,glycan array binding signal (z-score),[21],0.839
same,glycan array binding signal (z-score),[22],-0.058
same,glycan array binding signal (z-score),[23],-0.107
same,glycan array binding signal (z-score),[24],-0.277
same,glycan array binding signal (z-score),[25],-0.087
same,glycan array binding signal (z-score),[26],0.171
same,glycan array binding signal (z-score),[27],0.206
same,glycan array binding signal (z-score),[28],-0.209
same,glycan array binding signal (z-score),[29],-0.341
same,glycan array binding signal (z-score),[30],-0.297
